In paper PMC6212790 one finds binding signal data, which are given here for 172 sequences.

Some of the results follow. At the low end of the ranking the order means little.

This experiment deals with T1, GST-Rok-C97-191 (UniProt O34857).
T1 sequence: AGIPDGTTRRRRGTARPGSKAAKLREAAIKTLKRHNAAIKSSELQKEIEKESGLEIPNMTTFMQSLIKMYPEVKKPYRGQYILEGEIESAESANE
The experiment is described as follows: protein binding microarray.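 Also: rank score from −0.5 (least bound) to 0.5 (best bound).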 The following applies: Rok is a gene silencer of Bacillus subtilis; high values mean tight binding; most listed sequences are background and not binding sites; double strand, one strand shown.
Sequence GTGTACGA yielded a binding signal of -0.00664 E-score. Consider TCGCGACA, for which the binding signal is -0.135 E-score. Consider CCGACCCC, for which the binding signal is -0.443 E-score. Then CAGATTCG, with 0.0867 E-score; and CGGCAGTC, with -0.22 E-score.

As to AAGCCCTA, the binding signal is -0.172 E-score. In turn, AACCTGTA returned a binding signal of 0.0423 E-score.

The sequence GCCTGGAA displayed a binding signal of -0.0762 E-score.

In turn, AACGCACA yielded a binding signal of -0.111 E-score.

In turn, CTATTTGC yielded a binding signal of 0.142 E-score. Turning to AGAAGACC, the binding signal was -0.0237 E-score. To TATATGAA belongs 0.265 E-score; to AGTATAAG, 0.259 E-score; to AAGCCTGC, -0.209 E-score. AATTACTC yielded a binding signal of 0.255 E-score.

CCGTCACG displayed a binding signal of -0.096 E-score. CTGCTTGC gave a binding signal of -0.0519 E-score. Sequence ATCGTCTA returned a binding signal of 0.137 E-score. For the sequence CGCGGGAC, the binding signal was -0.366 E-score.

Sequence AGTGCGGG had a binding signal of -0.171 E-score. As to GCCCACGC, the binding signal is -0.179 E-score. Take GTTCGTAA: the binding signal was found to be 0.0791 E-score. For CCGAGCCA, the binding signal is -0.127 E-score. To TGTCTTAA belongs -0.0778 E-score; to ACTTGAGG, -0.0185 E-score. Sequence ACCTTCGG yielded a binding signal of -0.173 E-score.

Sequence AGCTCGGA displayed a binding signal of -0.175 E-score. For the sequence TAGATGCA, the binding signal was 0.155 E-score. As for ACGGACCC, the binding signal is -0.186 E-score. TGTAGCAA gave a binding signal of 0.194 E-score. For AGGGTGTA, the binding signal is -0.023 E-score. To AGGTTTTA belongs 0.0365 E-score. The sequence AACCGTGC displayed a binding signal of -0.0781 E-score.

In turn, AGCCGGTA displayed a binding signal of -0.113 E-score. Sequence GACTGGAC yielded a binding signal of -0.246 E-score. For the sequence CATAATCA, the binding signal came to 0.112 E-score. Turning to CCAGGCGA, the binding signal is -0.0465 E-score. To AGTTAACG belongs 0.209 E-score; to GCATGTAC, 0.163 E-score.

Sequence ATTTCGCG yielded a binding signal of 0.158 E-score. ACGACCCT: the binding signal is -0.0589 E-score. TCATACCA came in with a binding signal of 0.0725 E-score. For the sequence AAGCATTC, the binding signal was -0.00996 E-score. Then CAGTGTGA, with -0.0766 E-score; and CTCATCGA, with 0.0576 E-score; and TAATGAAA, with 0.107 E-score. Consider AAGAATGG, for which the binding signal was -0.0198 E-score. Turning to CTTTGATA, the binding signal was determined as 0.144 E-score. On to GGCCGCAC, for which the binding signal was -0.397 E-score. Then TACATGTA, with 0.417 E-score; and CGATTGAG, with -0.142 E-score.

In the case of AGAGGTCG, the binding signal was -0.0568 E-score. On to CAACGGGA, for which the binding signal was -0.0348 E-score. The sequence AGGGTGTG displayed a binding signal of -0.0958 E-score. For the sequence GTCTTTAA, the binding signal is -0.0159 E-score. As to CTCCGAGA, the binding signal amounted to 0.0341 E-score.

As to AATGTGTG, the binding signal is 0.011 E-score. Take CCGCGTTA: the binding signal is -0.185 E-score. To ATTCCGTA belongs 0.296 E-score; to ATCTATCC, 0.115 E-score; to CTTGAGCA, 0.017 E-score. The sequence AAATTACC came in with a binding signal of 0.365 E-score.

In the case of TGGCTCAA, the binding signal is -0.0195 E-score. Then GACGCAGC, with -0.311 E-score; and TTCATGAA, with -0.061 E-score; and ATACTTAG, with 0.213 E-score. In turn, CCCCATCA had a binding signal of -0.108 E-score. For the sequence AAACCTGT, the binding signal is -0.109 E-score. Sequence AGTCCTCG showed a binding signal of -0.119 E-score.

As for ACTTCCCC, the binding signal was found to be 0.0327 E-score. On to CCGCCTAA, for which the binding signal was -0.335 E-score. To CCTAAAGA belongs 0.135 E-score; to ACAAACAG, 0.143 E-score; to CGTCGTTC, -0.243 E-score.

In the case of AATACGAG, the binding signal was determined as 0.0609 E-score.

Take AGTATGCC: the binding signal is 0.0155 E-score.

GGGCCTGA displayed a binding signal of -0.29 E-score. GTAGCTTA returned a binding signal of 0.211 E-score.

Take GGAATTCC: the binding signal was found to be 0.0128 E-score.

CCTGCGCC had a binding signal of -0.169 E-score. Regarding CTTCGTCA, the binding signal is -0.15 E-score.

For GCCTACAA, the binding signal was determined as 0.182 E-score. On to TCAGGGGA, for which the binding signal is -0.111 E-score.

In turn, GCGATAAC returned a binding signal of 0.137 E-score. ACGTCTAG came in with a binding signal of 0.199 E-score. Take ATAAATTG: the binding signal came out at 0.264 E-score.

Sequence ACGTCACT gave a binding signal of 0.0919 E-score. With AGTAGTAC, the binding signal stood at 0.356 E-score. For GGGATAAC, the binding signal came to 0.0538 E-score. The sequence AAATATAG had a binding signal of 0.22 E-score. Turning to CCTTAAAA, the binding signal is -0.0245 E-score. GACGTGCA returned a binding signal of -0.0735 E-score. In turn, GGTGAGGA returned a binding signal of -0.218 E-score. To ATACGTGA belongs 0.147 E-score; to ATGGTTCA, -0.0658 E-score. In the case of CATTGCGG, the binding signal is -0.224 E-score. Sequence CGGATGCA showed a binding signal of -0.121 E-score. On to CGTACCTA, for which the binding signal amounted to 0.178 E-score. To CCGTACCA belongs -0.142 E-score; to AGACACGA, -0.238 E-score. GGCGATGA returned a binding signal of -0.154 E-score. The sequence CTATGTCA returned a binding signal of 0.0815 E-score. TAGGGGGA registered a binding signal of -0.143 E-score. For the sequence AAAAAGAC, the binding signal was -0.0782 E-score. To CCTCCGTA belongs -0.245 E-score; to TCAGACCA, -0.165 E-score; to AATGTGAG, 0.0644 E-score. GACAGCTC: the binding signal was -0.355 E-score.

Turning to CTCTAGCA, the binding signal is -0.00502 E-score. Consider ATAGAGAC, for which the binding signal stood at 0.171 E-score.

As to AACCAGAA, the binding signal is -0.152 E-score. Consider AGACATTA, for which the binding signal was 0.0762 E-score. With AGGAGCTA, the binding signal was found to be 0.0936 E-score. Regarding CGATCACG, the binding signal was -0.198 E-score.

On to ATACCCTG, for which the binding signal is -0.0272 E-score. In the case of ACTTATTA, the binding signal was determined as 0.283 E-score. Regarding GCATGGCA, the binding signal was -0.154 E-score. As for TCGGGGCA, the binding signal is -0.0327 E-score. CGAATGCC: the binding signal is -0.214 E-score. TAATCCAA returned a binding signal of -0.00906 E-score. Sequence ACATACGC displayed a binding signal of -0.0272 E-score. GCCATTAA: the binding signal was determined as 0.0393 E-score.

The sequence CCTTGCAA had a binding signal of -0.173 E-score.

The sequence CGCTATGA returned a binding signal of -0.117 E-score.

Sequence AGGAGCGA gave a binding signal of -0.17 E-score. Sequence ACTCGCGG yielded a binding signal of -0.0967 E-score. Then GCGTCGTA, with -0.00913 E-score. The sequence GTTACAAA showed a binding signal of 0.0329 E-score. AAGGATGC had a binding signal of -0.0681 E-score. The sequence GTATATCA showed a binding signal of 0.216 E-score. GTTGTTAA gave a binding signal of 0.19 E-score. Sequence GAACCAGC came in with a binding signal of -0.0106 E-score. ACACGGTA came in with a binding signal of 0.0693 E-score. CCCCACGC gave a binding signal of -0.111 E-score.

In the case of ACGTTTTA, the binding signal was determined as 0.0816 E-score. For the sequence GCACCACC, the binding signal is -0.138 E-score. Sequence TTAACTAA yielded a binding signal of 0.235 E-score. Then GCATCTAA, with 0.144 E-score; and CATTCAGG, with -0.226 E-score; and CCCCGCGC, with -0.309 E-score. The sequence TAAAATCA yielded a binding signal of 0.203 E-score. Sequence AAATACCA yielded a binding signal of 0.286 E-score. CCTCATCA returned a binding signal of -0.117 E-score. For CAGTAGTA, the binding signal is 0.362 E-score.

AGCACCTG yielded a binding signal of -0.227 E-score. In turn, AAAGCAGC had a binding signal of -0.121 E-score. Consider CAAAGAGG, for which the binding signal was -0.0617 E-score. The sequence ATCGTATC showed a binding signal of 0.235 E-score. Sequence AGGTAACA came in with a binding signal of 0.0028 E-score. In turn, CCATGAAA yielded a binding signal of -0.0976 E-score. ACGGCCGA returned a binding signal of 0.0172 E-score.

In turn, ATGGACGC registered a binding signal of -0.141 E-score.

TATGTCCA: the binding signal is 0.206 E-score. As to GTGCCCTA, the binding signal is -0.193 E-score.

For CCATACCG, the binding signal is -0.0056 E-score.

Consider GGGGACAA, for which the binding signal is -0.259 E-score. AGCCACCT: the binding signal was -0.127 E-score. Then CCACCCCC, with -0.242 E-score; and GGTTCAAA, with -0.0372 E-score; and ATCACCAA, with -0.028 E-score. GATTTAAA displayed a binding signal of 0.0253 E-score. To CAAATGTG belongs -0.0251 E-score; to GTACCCTA, -0.0812 E-score; to GACTCTAA, 0.0824 E-score. Take CGGACACC: the binding signal was -0.255 E-score.

Sequence AAAACCGG yielded a binding signal of -0.0633 E-score. With ATTATACG, the binding signal was 0.388 E-score.

Regarding AGGCAACC, the binding signal was -0.0941 E-score. The sequence CTTCAGTC registered a binding signal of 0.00258 E-score.

Consider CGAACTAG, for which the binding signal is 0.299 E-score. Regarding CGCACGAG, the binding signal was -0.396 E-score. As for GCTCGACA, the binding signal is -0.145 E-score.
